Measurements from paper PMC5892938.
The other results are listed elsewhere or left out. The exact form of the protein is not confirmed.

molecular target: GST-SBP-ILF3 (Homo sapiens) (UniProt Q12906); assay: targeted RNA Bind-n-Seq; settings: RBNS binding buffer: 25 mM Tris pH 7.5, 150 mM KCl, 3 mM MgCl2, 0.1% Tween, 0.5 mg/mL BSA, 1 mM DTT; 27 nM protein, 750 pM RNA pool; temperature not stated; high values mean tight binding; sequences stand for … in GGGUAAAAGCGAGGUGAA…CGGGACAAGUAUUAUGGG

Row | Sequence | binding signal (log2 fold change)
1 | UUUUUUUUUUGAGAACGAGCCGUUCUCCAG [tttttgagapaired] | 0.28
2 | UUUUUUUUUUGAGAUGGUUUCCGUCUCCUG [tttttgagapaired] | 0.623
3 | UUUUUUUUUUGAGAUCGGUGCGAUCUUCUA [tttttgagapaired] | 0.185
4 | GUGUGUGGUGUUGGUCUCUAACACCGCAUA [gtspaired] | -0.93
5 | GUUGGUGGUGUUGGUGUCUAACACCGCCGA [gtspaired] | -0.684
6 | UUUUUUUUUUGAGAGCGGAUCGCUCUCCAG [tttttgagapaired] | 0.331
7 | GGUGGUGGUGUUGGCGUCUAACACCAUCGC [gtspaired] | -0.371
8 | UUCUCUCUUCCUCCGAGGGAGGAGGGGAGA [ctspaired] | -0.127
9 | UUUUUUUUUUGAGACGGGAACCGUCUCCUG [tttttgagapaired] | 0.511
10 | UUUUUUUUUUGAGAGGGGCUCCCUCUCCUG [tttttgagapaired] | 0.797
11 | UUUUUUUUUUGAGAACGUAGCGUUCUCCGG [tttttgagapaired] | 0.218
12 | GGUUGGUGUGUUGGCACCUAACACACUAAC [gtspaired] | -0.479
13 | UUUUUUUUUUGAGAUGGCCACCAUCUCCUA [tttttgagapaired] | 0.496
14 | UUUUUUUUUUGAGAGGGUAACCCUUUCCGG [tttttgagapaired] | 0.23
15 | UUUUUUUUUUGAGACCGACACGGUCUCCGG [tttttgagapaired] | 0.288
16 | GGUUGUUGUGUUGGCGCCUAACACAACGAC [gtspaired] | -0.144
17 | UUUUUUUUUUGAGACGGUGACCGUCUCCAG [tttttgagapaired] | 0.377
18 | GGUGUUGGUGUUGGACUCUAACACCGACGC [gtspaired] | -0.5
19 | GUUGUGUGUGUUGGCUCCUAACACACGCAA [gtspaired] | -0.265
20 | UUUUUUUUUUGAGAGGGGAACCCUCUCCUA [tttttgagapaired] | 0.556
21 | UUUUUUUUUUGAGACGGGCCCCGUCUCCUG [tttttgagapaired] | 0.912
22 | UUUUUUUUUUGAGAUCGAUCCGAUCUCCUA [tttttgagapaired] | -0.0508
23 | UUUUUUUUUUGAGAGGGCGUCCCUCUUCUA [tttttgagapaired] | 0.666
24 | UUUUUUUUUUGAGAUGGAUGCCAUUUCCUA [tttttgagapaired] | 0.246
25 | GUGUGUGGUGUUGGCCCCUAACACCGCACG [gtspaired] | -0.127
26 | UUUUUUUUUUGAGAACGAGGCGUUCUCCUA [tttttgagapaired] | 0.0878

Row | Sequence | binding signal (log2 fold change)
27 | UUUUUUUUUUGAGAUCGGCGCGAUCUCCGG [tttttgagapaired] | 0.413
28 | UUUUUUUUUUGAGAGUGGGGCAUUCUCCAG [tttttgagapaired] | 0.522
29 | UUUUUUUUUUGAGAUGGUAUCUAUCUCCUA [tttttgagapaired] | 0.00572
30 | UUUUUUUUUUGAGAUGGUCUCCAUCUCCAG [tttttgagapaired] | 0.342
31 | UUUUUUUUUUGAGAUGGACUCCAUCUCCUA [tttttgagapaired] | 0.195
32 | GUGUGGUGUGUUGGAUCCUAACACAUCGCA [gtspaired] | -0.628
33 | UUUUUUUUUUGAGACGGGAGCCGUCUCCUA [tttttgagapaired] | 0.236
34 | UUUUUUUUUUGAGAUCGGCACGAUCUUCUG [tttttgagapaired] | 0.0444
35 | GGUGUGUGUGUUGGAUCCUAACACAUACGC [gtspaired] | -0.707
36 | GGUGUGUGUGUUGGAAUCUAACACAUACGC [gtspaired] | -0.841
37 | GUUGGUGGUGUUGGUGCCUAACACCGCCAG [gtspaired] | -0.561
38 | UUUUUUUUUUGAGAGGGGACCCCUUUCCAG [tttttgagapaired] | 0.447
39 | UUUUUUUUUUGAGAGCGGGCCGCUCUCCUG [tttttgagapaired] | 0.786
40 | GGUUGUGGUGUUGGCGCCUAACACCGCGAC [gtspaired] | -0.706
41 | UUUUUUUUUUGAGAGGGGUCCCCUCUCCAG [tttttgagapaired] | 1.01
42 | GUUGUGUGUGUUGGCCCCUAACACACGCAG [gtspaired] | -0.117
43 | GUUGGUGGUGUUGGUUCCUAACACCGCCAG [gtspaired] | -0.395
44 | UUUUUUUUUUGAGAGGGACUCCUUCUCCUA [tttttgagapaired] | -0.0271
45 | UUUUUUUUUUGAGAACGAUUCGUUCUCCGG [tttttgagapaired] | -0.0578
46 | UUUUUUUUUUGAGAUCGACACGAUCUCCAG [tttttgagapaired] | 0.0556
47 | GUGUGUGGUGUUGGUACCUAACACCGCAUA [gtspaired] | -0.405
48 | UUUUUUUUUUGAGACCGCGGCGGUCUCCAG [tttttgagapaired] | 0.983
49 | UUUUUUUUUUGAGAUGGGGACUAUCUUCUA [tttttgagapaired] | 0.283
50 | UUUUUUUUUUGAGAACGUAGCGUUCUUCUA [tttttgagapaired] | 0.177
51 | UUUUUUUUUUGAGACUGCUUCAGUCUCCUG [tttttgagapaired] | 0.509
52 | UUUUUUUUUUGAGACUGAUUCAGUCUCCGG [tttttgagapaired] | -0.179

Row | Sequence | binding signal (log2 fold change)
53 | UUUUUUUUUUGAGACCGUGUCGGUCUCCUA [tttttgagapaired] | 0.693
54 | UUUUUUUUUUGAGAGGGAAGCCCUCUCCUA [tttttgagapaired] | 0.307
55 | UUUUUUUUUUGAGAUGGCGACCAUCUCCAG [tttttgagapaired] | 0.334
56 | UUUUUUUUUUGAGAUCGAAACGAUCUUCUG [tttttgagapaired] | -0.307
57 | UUUUUUUUUUGAGAUGGAAACCAUCUCCGG [tttttgagapaired] | -0.049
58 | UUUUUUUUUUGAGAAGGGUCCCUUCUCCAG [tttttgagapaired] | 0.144
59 | GUGUGGUGUGUUGGUCUCUAACACACCACG [gtspaired] | -0.5
60 | GUUGGUGGUGUUGGAUUCUAACACCGCCAG [gtspaired] | -0.389
61 | UUUUUUUUUUGAGACGGGCACUGUCUCCGG [tttttgagapaired] | 1
62 | UUUUUUUUUUGAGACUGAGACAGUCUUCUA [tttttgagapaired] | 0.266
63 | UUUUUUUUUUGAGAGUGUUGCAUUCUCCUA [tttttgagapaired] | 0.24
64 | UUUUUUUUUUGAGAGGGUAUCCCUCUCCUA [tttttgagapaired] | 0.0981
65 | GUGUGGUGUGUUGGACCCUAACACAUCGCA [gtspaired] | -0.417
66 | UUUUUUUUUUGAGAGCGGUGCGCUCUCCGG [tttttgagapaired] | 0.214
67 | UUUUUUUUUUGAGACGGAGUCCGUCUCCUA [tttttgagapaired] | 0.577
68 | GGUUGGUGUGUUGGACCCUAACACAUCAGC [gtspaired] | -0.402
69 | GUGUGUGGUGUUGGCGUCUAACACCGCGCG [gtspaired] | -0.607
70 | GUGUGUUGUGUUGGCACCUAACACAACGCG [gtspaired] | -0.483
71 | UUUUUUUUUUGAGAGGGACGCCCUCUCCUA [tttttgagapaired] | 0.613
72 | GUGGUGUGUGUUGGAGCCUAACACACGCCA [gtspaired] | -0.205
73 | UUUUUUUUUUGAGACGGGGUCCGUCUCCUG [tttttgagapaired] | 0.77
74 | UUUUUUUUUUGAGACGGUGGCCGUUUCCUG [tttttgagapaired] | 0.965
75 | UUUUUUUUUUGAGAUCGGGCCGAUCUCCUG [tttttgagapaired] | 0.561
76 | GUGUGGUGUGUUGGUCUCUAACACACCAUA [gtspaired] | -0.472
77 | GUGUGGUGUGUUGGACUCUAACACACUACA [gtspaired] | -0.373
78 | UUUUUUUUUUGAGACCGCGGCGGUCUCCUA [tttttgagapaired] | 0.867

Row | Sequence | binding signal (log2 fold change)
79 | GUGUGGUGUGUUGGUUCCUAACACAUCGCG [gtspaired] | -0.884
80 | GUGUGUGGUGUUGGUACCUAACACCGCGCG [gtspaired] | -0.497
81 | UUUUUUUUUUGAGAACGUGACGUUCUUCUG [tttttgagapaired] | 0.506
82 | UUUUUUUUUUGAGAUGGUUCCCAUCUCCAG [tttttgagapaired] | 0.123
83 | UUUUUUUUUUGAGAGGGCUCCCCUUUCCAG [tttttgagapaired] | 0.696
84 | GUGUGGUGUGUUGGUCCCUAACACAUCGCA [gtspaired] | -0.589
85 | GUGUGUGGUGUUGGACCCUAACACCGCACG [gtspaired] | -0.365
86 | GUGUGGUGUGUUGGAUCCUAACACAUCACA [gtspaired] | -0.785
87 | GGUUGUUGUGUUGGCCUCUAACACAACGAC [gtspaired] | 0.0417
88 | UUUUUUUUUUGAGAGCGUAUCGCUCUCCUA [tttttgagapaired] | -0.0803
89 | GUGGUGUGUGUUGGUUCCUAACACACGCCG [gtspaired] | -0.249
90 | UUUUUUUUUUGAGAGGGGGUCCCUCUCCGG [tttttgagapaired] | 0.859
91 | UUUUUUUUUUGAGACGGAAGCCGUUUCCUG [tttttgagapaired] | 0.52
92 | GGUUGUGGUGUUGGCCCCUAACACCAUAAC [gtspaired] | -0.122
93 | UUUUUUUUUUGAGAUCGGGCCGAUCUCCUA [tttttgagapaired] | 0.323
94 | GUGUGUGGUGUUGGCCUCUAACACCGCACA [gtspaired] | -0.178
95 | UUUUUUUUUUGAGACUGUGUCAGUUUCCAG [tttttgagapaired] | 0.721
96 | UUUUUUUUUUGAGAGCGGUGCGUUCUUCUA [tttttgagapaired] | 0.498
97 | GGUGUUGGUGUUGGCCUCUAACACCAGCGC [gtspaired] | -0.537
98 | GUGGUGUGUGUUGGCGCCUAACACACAUCA [gtspaired] | -0.335
99 | UUUUUUUUUUGAGAUGGACUCUAUCUCCGG [tttttgagapaired] | 0.0974
100 | GGUGGUGGUGUUGGUACCUAACACCAUCGC [gtspaired] | -0.329
101 | UUUUUUUUUUGAGACCGAUUCGGUCUCCAG [tttttgagapaired] | 0.00113
102 | UUUUUUUUUUGAGACUGAAUCAGUCUCCUG [tttttgagapaired] | 0.123
103 | UUUUUUUUUUGAGACUGUAUCAGUCUCCUG [tttttgagapaired] | 0.298
